In PubChem BioAssay AID485344 (National Center for Advancing Translational Sciences (NCATS), 2010) one finds inhibition data, which are given here for 67 compounds.

The structures appear in SMILES notation. About 6,900 (2%) of roughly 340,000 compounds were called active. Rule as the data show it: active = inhibition above about 30%; inactive = below that, where a call was filed. The list shows a part of the results, in another mix than the full data. Where no call is shown, the source filed none.

The inhibition is the relative decrease from the control value, in per cent.

UniProt P14416, sequence (P14416 whole entry, looked up): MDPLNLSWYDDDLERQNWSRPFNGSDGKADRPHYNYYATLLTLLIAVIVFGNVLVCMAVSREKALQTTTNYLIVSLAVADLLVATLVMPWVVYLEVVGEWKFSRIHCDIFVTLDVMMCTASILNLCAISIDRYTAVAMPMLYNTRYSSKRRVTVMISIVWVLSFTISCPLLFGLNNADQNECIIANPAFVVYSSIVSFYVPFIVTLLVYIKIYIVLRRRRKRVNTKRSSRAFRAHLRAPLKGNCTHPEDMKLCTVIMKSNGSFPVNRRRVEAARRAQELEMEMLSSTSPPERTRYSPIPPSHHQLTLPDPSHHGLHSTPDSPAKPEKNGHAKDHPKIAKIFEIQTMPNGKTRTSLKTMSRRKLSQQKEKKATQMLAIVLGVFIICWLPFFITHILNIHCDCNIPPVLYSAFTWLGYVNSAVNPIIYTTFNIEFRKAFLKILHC

This assay addresses D(2) dopamine receptor (Homo sapiens) (UniProt P14416). Briefly: HTS Assay for Allosteric Antagonists of the Human D2 Dopamine Receptor: Primary Screen for Antagonists. Also: 0% is about no effect. The following applies: HEK293 TREx D2 cells, calcium flux, dopamine EC80; at 10 µM; stronger effect = higher value. In short, it runs like this:
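Antagonism is scored as inhibition of an EC80 dopamine-evoked calcium signal in a force-coupled, tetracycline-inducible HEK293 T-REx D2 line, with compound present 180 s before agonist.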
As for `CCOc1ccc(CCNC(=O)NCc2noc3ccc(C)cc23)cc1`, the inhibition came out at 1.78%.

For the compound `CCOCCc1nn2c(=O)cc(COC(=O)c3ccc(NC(=O)c4cccs4)cc3)nc2s1`, the inhibition turned out to be 5.5%.

Turning to `Cc1cccc(C(=O)N2CCc3cc(CNC(=O)c4ccco4)ccc32)c1`, the inhibition was determined as 16.1%.

`CC(C)(C)OC(=O)N1CCNc2ccccc2C1`: the inhibition was active: 30.5%.

As to `CCCn1c2ccccc2c2cnn(CC(=O)NCC3CCN(Cc4ccccc4C)CC3)c(=O)c21`, the inhibition worked out at 20.2%.

For `COc1ccccc1CNc1nccn(-c2ccc(F)cc2)c1=O`, the inhibition worked out at 9.97%.

Turning to `COC(=O)CN1C(=O)C(O)(c2c(C)[nH]c3ccccc23)c2ccccc21` (configuration not stated), the inhibition is -5.72%.

`Cc1csc2nc(COc3ccc(NC(=O)c4ccccc4F)cc3)cc(=O)n12`: the inhibition came to 9.26%.

For the compound `COc1ccc(C(=O)Nc2nc(-c3ccc(Br)cc3)ns2)cc1`, the inhibition was 9.11%.

As to `O=C(Nc1cccc(Br)c1)c1cc(S(=O)(=O)N2CCCCC2)c[nH]1`, the inhibition is 7.75%.

As to `COc1ccc(-c2nc3n(n2)C(c2ccc(O)cc2)C(C(=O)Nc2cccnc2)=C(C)N3)cc1OC` (configuration not stated), the inhibition worked out at 7.1%.

In the case of `Cc1cc(S(=O)(=O)Nc2cc3c(cc2N2CCOCC2)n(C)c(=O)c(=O)n3C)ccc1F`, the inhibition is -4.14%.

On to `CC(C)=C(NC(=O)c1ccccc1)C(=O)N/N=C(\C)c1ccccc1O`, for which the inhibition was active: 62.7%.

Consider `COc1ccc(-c2nc3ccccc3s2)cc1NC(=O)c1cc(OC)c(OC)c(OC)c1`, for which the inhibition is 0.0323%.

With `COc1ccc(C(=O)N2CCN(C(=O)COc3ccccc3)CC2)cc1OC`, the inhibition was found to be 8.57%.

As to `O=C(c1ccc2c(c1)N(Cc1ccccc1)C(=O)c1ccccc1S2(=O)=O)N1CCOCC1`, the inhibition is 11%.

`CCc1ccc(-n2c(N3CCN(c4ccc(F)cc4)CC3)nc3ccccc3c2=O)cc1`: the inhibition is -3.49%.

Turning to `COc1ccc(NC(=O)C(NC(=O)/C=C\c2ccc3c(c2)OCO3)c2ccc(C)cc2)cc1` (configuration not stated), the inhibition is -8.46%.

On to `O=C(NCCCN1CCN(c2cccc(Cl)c2)CC1)C1(S(=O)(=O)c2ccc(Cl)cc2)CC1`, for which the inhibition is active: 34.6%.

As for `O=C(Nc1ccc2cn[nH]c2c1)c1ccc(S(=O)(=O)N2CCOCC2)cc1`, the inhibition is active: 30.5%.

Turning to `O=C(Nc1ccc2oc(-c3cccnc3)nc2c1)c1ccccc1F`, the inhibition was -4.63%.

On to `O=C(C[n+]1ccccc1)N/N=C/c1cc(Br)cc(Br)c1O`, for which the inhibition is active: 31.7%.

As for `COc1ccc(CC(=O)N2CCc3c([nH]c4ccccc34)C2c2ccc(SC)cc2)cc1` (configuration not stated), the inhibition is 3.98%.

For `COCCNC(=O)CCn1nc(-c2ccc(Cl)cc2)c2ccccc2c1=O`, the inhibition was -5.46%.

Take `CC(=O)N1CCCc2cc(S(=O)(=O)Nc3ccc(Cl)cc3F)ccc21`: the inhibition was -4.08%.

On to `COc1ccccc1CNC(=O)C(=O)NCC(c1cccnc1)N1CCN(c2ccccc2)CC1` (configuration not stated), for which the inhibition stood at 20%.

In the case of `Cc1noc(C)c1S(=O)(=O)N(CC(=O)NCc1ccccc1)c1ccc(C(C)C)cc1`, the inhibition was 5.32%.

As for `O=C(COCc1cc(-c2ccco2)on1)Nc1cc(Cl)ccc1O`, the inhibition is -4.22%.

Regarding `COc1ccc(-c2nc(SCC(=O)NC3CCCC3)c(-c3ccc(F)cc3)[nH]2)cc1OC`, the inhibition turned out to be 27.4%.

For the compound `COc1ccc(C)cc1NC(=O)Cn1nc(N2CCN(c3ccccc3OC)CC2)ccc1=O`, the inhibition was -6.99%.

With `COc1ccccc1Cc1nc2ccccc2nc1SCC(=O)NCc1ccc(C)cc1`, the inhibition is -11.3%.

Consider `O=C(CN1CCN(C2CCCCC2)CC1)c1c[nH]c2ccccc12`, for which the inhibition is active: 41.6%.

As for `COc1cccc(CNC(=O)c2nn(C)c3c2CSc2ccccc2-3)c1`, the inhibition turned out to be 17.9%.

Take `COc1ccc(NC(=O)c2cnc3cc(C)ccn3c2=O)c(OC)c1`: the inhibition was -3.85%.

As to `COc1ccc(Cn2c(=O)n(-c3ccc(C)cc3)c(=O)c3c2c2cc(C)ccc2n3C)cc1`, the inhibition was 4.57%.

`Cc1ccc(C)c(CN2CCCN(Cc3ccccc3C)S2(=O)=O)c1`: the inhibition was -8.01%.

As for `O=C(CN1C(=O)CCc2cc(Br)ccc21)Nc1ccc(OC(F)(F)F)cc1`, the inhibition amounted to 19%.

As to `COc1ccccc1NC(=O)CSc1nnc2c(n1)[nH]c1ccccc12`, the inhibition came out at 20.9%.

Consider `Cc1noc(-c2ccc(-c3noc(-c4ccc(Cl)cc4)n3)cc2)n1`, for which the inhibition was -3.03%.

Regarding `OCCNCCOc1ccccc1-c1ccccc1`, the inhibition is active: 66.4%.

Regarding `COc1ccc(Cc2nc(-c3ccc(Br)cc3)no2)cc1`, the inhibition was active: 31.2%.

As to `Cc1ccc2nc(-c3ccc(Cl)c(NC(=O)COc4ccc([N+](=O)[O-])cc4)c3)oc2c1`, the inhibition was -0.595%.

For `CCOC(=O)c1c(C)oc2ccc(N(C(=O)c3ccncc3)S(=O)(=O)c3ccc(F)cc3C)cc12`, the inhibition stood at 15.2%.

`O=C(Cn1c(=O)n(-c2ccccc2)c(=O)c2c3c(sc21)CCC3)c1ccc(Br)cc1`: the inhibition is 0.215%.

Turning to `Cc1cccc(CS(=O)(=O)Cc2ccc(C(=O)NCc3ccc(F)cc3)o2)c1`, the inhibition was -24.7%.

In the case of `COc1ccc(CCNC(=O)CN2C(=O)c3ccccc3S2(=O)=O)cc1`, the inhibition is active: 34.5%.

With `COc1ccccc1N1CCN(S(=O)(=O)c2cc(C(=O)Nc3ccc(Oc4ccccc4)cc3)ccc2F)CC1`, the inhibition was found to be 18.4%.

Take `COc1cccc(NC(=O)c2cnc(SCC(=O)N3CCCc4ccccc43)n(C)c2=O)c1`: the inhibition came to 20.4%.

For the compound `Cc1ccnc(NC(c2cccc(O)c2)c2ccc3ccc(C)nc3c2O)c1` (configuration not stated), the inhibition is 1.09%.

Turning to `Cc1ccc(CNC(=O)c2cc3sc(Cl)cc3n2C)cc1`, the inhibition was -3.95%.

In the case of `COc1ccccc1Cn1c(C2CC(=O)N(c3ccccc3OC)C2)nc2ccccc21` (configuration not stated), the inhibition stood at 19.9%.

Turning to `O=C(CSC1=Nc2ccccc2C2=NC(Cc3ccccc3)C(=O)N12)Nc1cccc(Cl)c1` (configuration not stated), the inhibition was found to be 2.79%.

Take `Cc1cc(S(=O)(=O)N2CCN(c3ccccn3)CC2)ccc1F`: the inhibition was active: 33%.

On to `COc1ccccc1NC(=O)c1ccc(NC(=O)CN2CCN(C(=O)c3ccco3)CC2)cc1`, for which the inhibition was active: 40.9%.

For the compound `CCc1ccc2occ(CC(=O)Nc3c(C(=O)c4ccccc4)oc4ccccc34)c2c1`, the inhibition was determined as 3.56%.

For the compound `CCOC(=O)c1c(-c2ccccc2)oc2ccc(NS(=O)(=O)c3ccc(C)cc3)cc12`, the inhibition is -17.1%.

As for `CCN1C(=O)c2ccccc2Sc2ccc(NC(=O)Nc3cc(C)cc(C)c3)cc21`, the inhibition was 22.8%.

Take `COc1ccc(Cl)c2sc(NC(=O)c3ccc(S(=O)(=O)N4CCCC4)cc3)nc12`: the inhibition was -23.9%.

For `COc1ccccc1NC(=O)CSCc1cc(=O)c2cccc(Cl)c2[nH]1`, the inhibition was 15.3%.

With `CCOc1ccccc1CNS(=O)(=O)c1ccc(-c2cnc(C3CC3)o2)cc1`, the inhibition was -14.6%.

With `COc1ccc(S(=O)(=O)c2cn(C)c3cc(N4CCCCCC4)c(F)cc3c2=O)cc1`, the inhibition is 5.5%.

As to `COc1ccc(-c2noc(-c3nnn(-c4ccc(C)cc4C)c3C)n2)cc1`, the inhibition is -5.37%.

`COc1ccc(NC(=O)CSC2=Nc3ccccc3C3=NC(CCC(=O)NC4CCCCC4)C(=O)N23)cc1Cl` (configuration not stated): the inhibition was -5.76%.

`Cc1ccc(-n2nc(CO)c(C(=O)NCc3cccnc3)n2)cc1C`: the inhibition came to 5.42%.

Take `O=C(Nc1cc(F)ccc1F)C1CCN(C(=O)c2cnn(-c3ccccc3)c2-n2cccc2)CC1`: the inhibition was 2.39%.

For `Cc1ccc(NC(=O)CSc2nncn2C)c(C)c1`, the inhibition turned out to be 0.381%.

As to `FC(F)(F)c1cccc(CN2CCC(c3cc(-c4cccs4)n[nH]3)CC2)c1`, the inhibition was active: 83.9%.
